Data taken from PubChem BioAssay AID1345082 (National Center for Advancing Translational Sciences (NCATS), 2018).
The campaign covered roughly 94,000 compounds. About 4,000 (4.3%) were called active. The inconclusive results got no clear call from the source; some entries with a clear call stand among them for comparison. Calls come from the whole dose curve; as a rule, active = well fitted inhibition curve with a large enough effect; inconclusive = small, poorly fitted or top-dose-only effect; inactive = no such curve, though single readings can be large or run the other way. Potencies of inconclusive entries are doubtful fits and often do not repeat.

assay: Cytotoxic Profiling in NIH 3T3 Cell Line of Diverse Libraries Using Quantitative High-Throughput Screening; conditions: NIH 3T3 viability, CellTiter-Glo ATP luminescence, 48-72 h; activity change, negative = cytotoxicity: at 96.7 µM (top of the series) unless noted; series mostly up to 96.7 µM; note: nearly all actives have a fitted effect of over 55% in size
Summary of the method: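 Viability of NIH 3T3 cells after 48 or 72 hr compound treatment at 37 °C was assessed by CellTiter-Glo, with luminescence imaged following a 10 min room-temperature step.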
% is set by controls: 0 for no effect and ±100 for the full control effect; potency is the fitted concentration of half-maximal effect; tags give direction and shape of the fitted curve.

Row | SMILES | Potency | activity change, negative = cytotoxicity | outcome
1 | COc1ccccc1CN1CC(c2noc(-c3sccc3C)n2)CC1=O (stereo unspecified) | inconclusive: 50.1 µM [inhibitor, partial curve, poor fit] | – | –
2 | CN1[C@@H](CCC(=O)N2CCOCC2)CNC(=O)[C@@H]2[C@H]1CCN2Cc1nc2ccccc2n1C | inconclusive: 70.8 µM [inhibitor, single point] | – | –
3 | COc1ccc(-c2noc(-c3cccn3CC(=O)Nc3cc(C)ccc3OC)n2)cc1F | inconclusive: 70.8 µM [inhibitor, single point] | – | –
4 | CCOC(=O)[C@@H]1[C@@H](O)C(=O)N(Cc2ccccc2)C12CCN(C(=O)c1cc3ccccc3s1)CC2 | inconclusive: 50.1 µM [inhibitor, partial curve, poor fit] | – | –
5 | C#CCNC(=O)c1ccc2nnc(-c3ccc(C(F)(F)F)cc3)n2c1 | – | inactive: -24.2% | –
6 | COc1ccc(-c2cn3cc(C(=O)N4CC[C@H](O)C4)nc3c(=O)n2CC2CC2)cc1 | inconclusive: 50.1 µM [inhibitor, partial curve, poor fit] | – | –
7 | COc1cccc(Nc2n[nH]c(C(O)c3cccc(C(F)(F)F)c3)n2)c1 (stereo unspecified) | inconclusive: 89.1 µM [inhibitor, partial curve, poor fit] | – | –
8 | O=C(C1CCCN(C(=O)C2CC2)C1)N1CCC(N2CCOC2=O)CC1 (stereo unspecified) | – | inactive: -21.3% [at 138 µM] | –
9 | COc1ccc(-c2cc(N3CCCC(NC(=O)c4cccc(N(C)C)c4)C3)n[nH]2)cc1 (stereo unspecified) | inconclusive: 50.1 µM [inhibitor, partial curve, poor fit] | – | –
10 | COc1cccc(Cn2c(=O)c3ccnn3c3ccc(C(=O)NCCCN(C)C)cc32)c1 | active: 35.5 µM | – | –
11 | O=C(NC1CCN(Cc2cccc(-c3ccc(F)c(F)c3)c2)CC1)c1ccc(F)cc1 | active: 39.8 µM | – | –
12 | C[S+](=O)([O-])CCn1ncc2cc(OCc3cccc(-c4cccc(O)c4)c3)ccc21 | inconclusive: 56.2 µM [inhibitor, partial curve, poor fit] | – | –
13 | CCOC(=O)C1CCCN(C(=O)c2cn3cc(-c4ccc(C)cc4)sc3n2)C1 (stereo unspecified) | – | inactive: -27.1% | –
14 | Cn1ncc2c(C(=O)NC3CC3)cc(-c3ccc(F)cc3)nc21 | inconclusive: 17.8 µM [inhibitor, full curve, poor fit] | – | –
15 | Cc1nc(-c2ccccc2)n(CC(=O)Nc2ccc(C(C)C)cc2)c(=O)c1CCO | inconclusive: 44.7 µM [inhibitor, partial curve, poor fit] | – | –
16 | O=C(Nc1cccc(C(F)(F)F)c1)N[C@H]1[C@H](O)[C@@H](N2CCCC2)[C@@H]2OC[C@H]1O2 | inconclusive: 126 µM [inhibitor, single point] | – | –
17 | Cc1ccc(C)c(N2CCN(C(=O)c3cc(-c4ccncc4)cn3C)CC2)c1 | inconclusive: 44.7 µM [inhibitor, partial curve, poor fit] | – | –
18 | CCCN1CCC2(Cc3ccccc3CN(C(=O)Cc3ccc(O)cc3)C2)C1 (stereo unspecified) | – | – | inactive
19 | COc1ccc(C(=O)N2CCN(c3nccc(Nc4ccccc4Cl)n3)CC2)cc1 | inconclusive: 44.7 µM [inhibitor, partial curve, poor fit] | – | –
20 | COc1cc(CN(C)C2CCOc3ccccc32)ccc1F (stereo unspecified) | inconclusive: 79.4 µM [inhibitor, partial curve, poor fit] | – | –
21 | Cc1cnc(CC2CCN(Cc3cccc(F)c3)C2)n1CC1CC1 (stereo unspecified) | inconclusive: 50.1 µM [inhibitor, partial curve, poor fit] | – | –
22 | Cc1cc(C)n(-c2cccc(CN(C)C(=O)C3CCC(=O)N(C4CCCC4)C3)c2)n1 (stereo unspecified) | inconclusive: 44.7 µM [inhibitor, partial curve, poor fit] | – | –

Row | SMILES | Potency | activity change, negative = cytotoxicity | outcome
23 | Cn1nc(C(=O)N2CCCN(c3cc(-c4ccc(Cl)cc4)[nH]n3)CC2)c2ccccc21 | inconclusive: 39.8 µM [inhibitor, partial curve] | – | –
24 | O=C(NCC1CC1)C1(F)CCN(S(=O)(=O)c2cccs2)CC1 | – | inactive: -15.7% | –
25 | C#CCN(C)CC[C@@H]1CC[C@H](O)[C@@H](C(=O)NC2CCCCC2)O1 | – | inactive: -2.94% [at 138 µM] | –
26 | Cn1nccc1C(=O)N1CCC(Oc2ccccc2)C1 (stereo unspecified) | – | inactive: -8.77% | –
27 | CNc1cccnc1OC1CCN(S(=O)(=O)Cc2ccccc2)C1 (stereo unspecified) | – | – | inactive
28 | O=C(c1cccnc1OC1CCN(C(=O)C2CC2)C1)N1CCOCC1 (stereo unspecified) | – | – | inactive
29 | CN(C)c1cc(=O)c2ccnc(-c3ccccc3F)c2o1 | active: 44.7 µM | – | –
30 | COCCNC(=O)[C@H]1C[C@H](Oc2ccccc2)CN1C(=O)c1ccc(F)cc1 | – | inactive: 0.0217% | –
31 | O=C(CNC(=O)c1cccc(-c2ccsc2)c1)NCc1ccc(F)cc1F | – | inactive: -22.1% | –
32 | CC1=C[C@@H](CNS(=O)(=O)c2ccc(C#N)cc2)[C@H](C(C)C)C[C@H]1CC(=O)NCc1ccc(C#N)cc1 | inconclusive: 50.1 µM [inhibitor, partial curve, poor fit] | – | –
33 | NC(=O)[C@H](CC1CCCCC1)NC(=O)[C@@H]1CN(C(=O)Nc2ccccc2)CCN1C(=O)C1CCNCC1 | – | inactive: -4.25% | –
34 | O=C(c1ccc2nccn2c1)N1CCC(Cc2ccccc2)CC1 | inconclusive: 44.7 µM [inhibitor, partial curve, poor fit] | – | –
35 | COc1cccc(S(=O)(=O)N2CCn3nnc(CCC(=O)N4CCOCC4)c3C2)c1 | – | inactive: -21.3% | –
36 | O=C(c1ccoc1)N1CCC2(CC1)N=C(c1ccccc1)NO2 | – | – | inactive
37 | O=C(CNC(=O)c1ccc(-c2cnc3ccccc3c2)cc1)NCCc1cccc(F)c1 | – | inactive: -17.8% | –
38 | Cc1ccc(-n2c(C3CCN(C(=O)c4ccc(C#N)cc4)CC3)n[nH]c2=O)cc1 | active: 35.5 µM | – | –
39 | O=C(NCCc1ccc(F)cc1)c1ccc2nnc(-c3ccc(Cl)cc3)n2c1 | inconclusive: 44.7 µM [inhibitor, partial curve, poor fit] | – | –
40 | O=C(Nc1ccon1)[C@@H]1C[C@@H](c2ccc(F)cc2)N(Cc2ccccc2)C1 | inconclusive: 56.2 µM [inhibitor, partial curve, poor fit] | – | –
41 | O=C(N[C@H]1C[C@H]2C(=O)Nc3cc(Cl)ccc3C(=O)N2C1)c1ccccc1 | – | inactive: -0.841% [at 174 µM] | –
42 | CC(C)CCN1CCC2(COc3ccccc3C(=O)N2)C1 (stereo unspecified) | active: 100 µM | – | –
43 | CCOc1cccc(CN2CCC3(CCNCC3)C2)c1O | inconclusive: 35.5 µM [inhibitor, partial curve, poor fit] | – | –
44 | O=C1Nc2ccccc2CC12CCN2Cc1cccc2ccccc12 (stereo unspecified) | active: 89.1 µM | – | –

Row | SMILES | Potency | activity change, negative = cytotoxicity | outcome
45 | O=C(c1ccc(F)cc1)N1CCC(C(=O)N2CCC(N3Cc4cccn4C3=O)CC2)CC1 | inconclusive: 44.7 µM [inhibitor, partial curve, poor fit] | – | –
46 | COc1ccc(C(=O)N2CCC(N3C[C@H](O)C[C@H]3C(=O)NC3CCCCC3)CC2)cc1OC | – | inactive: -13.1% | –
47 | O=C1Nc2ccc(-c3ccccc3)cc2C(=O)N2CCN(C(=O)c3cccnc3)C[C@H]12 | – | inactive: -26.7% [at 174 µM] | –
48 | COc1ncc(-c2cc(C(=O)NCc3cnn(C)c3)c3c(c2)N(C)CCO3)cn1 | inconclusive: 79.4 µM [inhibitor, partial curve, poor fit] | – | –
49 | CN1CCC(N2CCC(CN(Cc3ccncc3)C(=O)c3cnc[nH]3)CC2)CC1 | – | inactive: -16.4% | –
50 | CCN1CCN(C(=O)Cn2c(C)ccc(NC(=O)Nc3ccc(C)cc3)c2=O)CC1 | – | inactive: -1.81% | –
51 | Cc1ccsc1C(=O)N1CCN(C(=O)c2nnn3c2COC(c2ccccc2)C3)CC1 (stereo unspecified) | – | inactive: -16.8% | –
52 | COCCN1CCNc2cc(-c3ccc(Oc4ccccc4)cc3)ncc2C1 | active: 44.7 µM | – | –
53 | CCn1ncc(CN2CCC(N3C(=O)C4(CCCC4)C3c3scnc3C)CC2)c1C (stereo unspecified) | – | inactive: -1.29% | –
54 | CC(C)c1noc(-c2cccn3c(CNC(=O)c4cccc5[nH]ccc45)nnc23)n1 | inconclusive: 44.7 µM [inhibitor, partial curve, poor fit] | – | –
55 | COc1ccccc1-c1cc(C(=O)NCc2ccc(Cl)cc2)nn2cnnc12 | inconclusive: 56.2 µM [inhibitor, partial curve, poor fit] | – | –
56 | Cc1cc(F)ccc1-c1[nH]nc2ncc(-c3ccc([S+](C)(=O)[O-])cc3)nc12 | inconclusive: 10 µM [inhibitor, full curve, poor fit] | – | –
57 | O=C(CN1C(=O)NC(c2ccc(Cl)cc2)C2=C1COC2=O)Nc1ccc2c(c1)OCCO2 (stereo unspecified) | inconclusive: 44.7 µM [inhibitor, partial curve] | – | –
58 | O=C(c1nccc2ccccc12)N1CCC(n2cc(-c3nc(-c4ccccc4)no3)nn2)C1 (stereo unspecified) | inconclusive: 17.8 µM [inhibitor, full curve, poor fit] | – | –
59 | COCCOC1CN(C2CCN(S(=O)(=O)c3ccccc3)CC2)C12CCCCC2 (stereo unspecified) | – | inactive: -11.2% | –
60 | CC(=O)NC1(C)CCCN(Cc2cccc(Nc3cccc(C#N)c3)c2)C1 (stereo unspecified) | inconclusive: 112 µM [inhibitor, single point] | – | –
61 | CC(=O)Nc1ccc(CN2CCn3c(nn(-c4ccc(C(F)(F)F)cc4)c3=O)C2)cc1 | inconclusive: 17.8 µM [inhibitor, full curve] | – | –
62 | O=C(Cc1ccc(-n2cnnn2)cc1)N1CCC2(CC1)[C@H](O)C[C@@H]2O | – | inactive: 2.53% | –
63 | OC1(c2nc(Nc3ccc(Cl)c(C(F)(F)F)c3)n[nH]2)CCOCC1 | inconclusive: 63.1 µM [inhibitor, partial curve, poor fit] | – | –
64 | Cc1ccc(-c2nnc([C@H]3CCN(Cc4cccc(C#N)c4)C3)o2)cc1 | inconclusive: 44.7 µM [inhibitor, partial curve] | – | –
65 | Cc1cc(C)c(CNC(=O)c2nc(-c3cccnc3)cc3[nH]ccc23)c(=O)[nH]1 | inconclusive: 56.2 µM [inhibitor, partial curve, poor fit] | – | –
66 | CCCc1cc(CN(C)c2nc(CCN)nc3sc(C)c(C)c23)[nH]n1 | inconclusive: 28.2 µM [inhibitor, full curve, poor fit] | – | –
